Experimental data published in PubChem BioAssay AID720542 (National Center for Advancing Translational Sciences (NCATS), 2013).
In all, about 360,000 compounds went through this assay and about 740 (0.21%) were called active. The shares of active, inactive and inconclusive entries below differ from those in the screen. Calls follow the shape of the dose curve; as a rule, active = well fitted inhibition curve with a large enough effect; inconclusive = small, poorly fitted or top-dose-only effect; inactive = no such curve, though single readings can be large or run the other way. No potency is given beside an inconclusive call; the fits are too rough.

What follows are compounds tested on Plasmodium falciparum AMA1 (3D7) - RON2 peptide interaction (assay: qHTS for Inhibitors of AMA1-RON; Towards Development of Antimalarial Drug Lead: Primary Screen). Conditions: AlphaScreen AMA1-biotinylated RON2 peptide binding; activity change, negative = inhibition: at 58.2 µM (top of the series) unless noted.
Method in brief: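 AMA1 (3D7) with his tag at 25 nM final met compounds first, then biotinylated RON2 peptide at 25 nM; detection used donor plus acceptor beads, 10 µg/mL apiece, read by AlphaScreen after 30 min at room temperature.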
Also: nearly all actives have a fitted effect of over 45% in size.
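For activity change, negative = inhibition in this document: 0% = vehicle wells and -100% = peptide control.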
Potency is read from the fitted curve at half-maximal effect; tags tell the direction and shape of the fitted curve.

| Structure (SMILES) | Potency | activity change, negative = inhibition |
| --- | --- | --- |
| O=C(COC(=O)CNC(=O)c1ccc(Cl)cc1Cl)Nc1ccc(N2CCOCC2)cc1 | inconclusive [inhibitor, single point] | – |
| CCc1ccc(NC(=O)c2noc(C(C)C)c2[N+](=O)[O-])cc1 | – | inactive: 28.3% |
| COc1ccc(Br)cc1CNC(=O)CCCc1cn(C)c2ccccc12 | inconclusive [inhibitor, single point] | – |
| Cc1ccc(S(=O)(=O)N2CC(O)C[C@H]2C(=O)OCC(=O)Nc2ccc(N3CCCCC3)cc2)cc1C (stereo partly drawn) | inconclusive [inhibitor, partial curve] | – |
| COc1ccc(N2CCN(C(=O)c3cc(-c4cccs4)nc4ccccc34)CC2)cc1 | active: 12.6 µM | – |
| CC(=O)/C(=N\Nc1ccccc1)Oc1ccc(Br)cc1 | inconclusive [inhibitor, full curve] | – |
| O=C(COc1ccc2c(c1)OCO2)Nc1nccs1 | inconclusive [inhibitor, single point] | – |
| Cc1ccc(C(C)C)c(OCC#CCN2CCOCC2)c1 | inconclusive [inhibitor, partial curve] | – |
| COc1ccccc1NC1=Nc2cccc3cccc1c23 | inconclusive [inhibitor, partial curve, poor fit] | – |
| CCOC(=O)C1(CCOc2ccccc2)CCN(Cc2cccc3c2OCO3)CC1 | inconclusive [inhibitor, partial curve] | – |
| C#CCOCCOCCOCCNc1nc(N2CCN(C(=O)CCCCCCCCCCNC(=O)[C@@H](CCSC)n3cc(CCO)nn3)CC2)nc(N2CCN(C(=O)CCCCCCCCCCNC(=O)[C@H]([C@@H](C)CC)n3cc(CCCCN=C(N)N)nn3)CC2)n1 | inconclusive [inhibitor, single point] | – |
| O=C(NCCc1ccc(Cl)cc1)c1ccc(Br)s1 | – | inactive: -9.92% |
| COc1cc(-c2nc3ccc(C)cn3c2Nc2ccc3c(c2)OCCO3)ccc1O | inconclusive [inhibitor, partial curve] | – |
| CCOC(=O)c1csc(-c2csc(CCNC(=O)c3ccccc3)n2)n1 | inconclusive [inhibitor, partial curve] | – |
| COCOc1cccc(CN2CCC(C)(Oc3ccc(SC)cc3)C2)c1 (stereo not drawn) | inconclusive [inhibitor, partial curve] | – |
| CC(=O)N1CCN(CC(=O)Nc2ccc(C)c(F)c2)CC1 | inconclusive [inhibitor, partial curve] | – |
| CCOC(=O)c1c(C2COc3ccccc3O2)csc1NC(=O)c1ccccc1 (stereo not drawn) | inconclusive [inhibitor, single point] | – |
| O=C1NC(=O)C(=Cc2coc3ccccc3c2=O)C(=O)N1 | – | inactive: -2.13% |
| N#C/C(=C\c1c[nH]c2ccccc12)C(=O)NC1CCCC1 | – | inactive: 13.6% |
| COC(=O)CCSCC(=O)N1N=C(c2ccc(Br)cc2)CC1c1cccc(OC)c1OC (stereo not drawn) | inconclusive [inhibitor, partial curve] | – |
| CC1CC(C)CN(C(=O)CSc2nnc(-c3ccco3)o2)C1 (stereo not drawn) | – | inactive: 1.79% |
| Cc1ccccc1CN1CCN(Cc2ccccc2C(F)(F)F)CC1 | inconclusive [inhibitor, partial curve] | – |
| CCOc1ccc(CN2CCN(C(=O)c3ccccc3)CC2)cc1 | inconclusive [inhibitor, single point] | – |

| Structure (SMILES) | Potency | activity change, negative = inhibition |
| --- | --- | --- |
| Cc1cc(/C=C2\NC(=S)N(C)C2=O)ccc1N1CCCC1 | inconclusive [inhibitor, single point] | – |
| Nc1nc(CSC(=S)N2CCN(c3ccccc3)CC2)nc(Nc2ccc(F)cc2)n1 | inconclusive [inhibitor, partial curve] | – |
| C[C@H](CO)N1C[C@H](C)[C@H](CN(C)S(=O)(=O)c2cccs2)OCc2cnnn2CCCC1=O | – | inactive: 2.96% |
| O=[N+]([O-])c1cc(Cl)cc(/C=N/NC(=S)Nc2cc(S(=O)(=O)N3CCOCC3)ccc2Cl)c1O | inconclusive [inhibitor, full curve] | – |
| O=C1C(O)=CC(=C(c2ccccc2)c2ccccc2)c2ccccc21 | active: 10 µM | – |
| O=[N+]([O-])c1ccccc1CNc1ccc(F)c(Cl)c1 | inconclusive [inhibitor, partial curve] | – |
| CCOc1ccc(/C=N/N2C(=O)C(CC(=O)Nc3ccc(F)cc3F)SC2=NC)cc1OC (stereo not drawn) | – | inactive: 7.29% |
| Cc1ccc(NC(=O)Cn2nc(-c3ccco3)ccc2=O)cc1Cl | inconclusive [inhibitor, single point] | – |
| O=C(NCC1CCCO1)c1cccc(Oc2ccc([N+](=O)[O-])cc2)c1 (stereo not drawn) | – | inactive: -3.1% |
| COc1ccc(NC(=O)CSc2nnc(Cc3ccccc3)c(=O)n2N)cc1OC | – | inactive: 6.58% |
| Nc1ccc2nc(-c3cccc(-c4nc5ccc(N)cc5[nH]4)c3)[nH]c2c1 | inconclusive [inhibitor, partial curve] | – |
| CSc1ccccc1OCc1cc(C(=O)NCCc2ccco2)no1 | – | inactive: 3.82% |
| COc1cc(/C=N/NC(=O)c2cc(-c3ccccc3)nc3ccccc23)cc(OC)c1O | – | inactive: 61.3% |
| COc1ccccc1C(=O)NC(CCSC)C(=O)N1CCC(Cc2ccccc2)CC1 (stereo not drawn) | inconclusive [inhibitor, partial curve, poor fit] | – |
| CCN1CCN(c2ccc(NC(=O)c3ccc4c(c3)[nH]c(=O)n4Cc3ccc(F)cc3)cc2)CC1 | inconclusive [inhibitor, single point] | – |
| N#Cc1c(-n2cccc2/C=N/O)sc2c1CCCC2 | inconclusive [inhibitor, partial curve] | – |
| CCCn1nc(NC(=O)C2CCCO2)c2cc3cc(C)ccc3nc21 (stereo not drawn) | active: 1.12 µM | – |
| O=C(Nc1cccc(S(=O)(=O)N2CCCCC2)c1)C1CCC1 | inconclusive [inhibitor, single point] | – |
| Cc1cc(C)c(CSc2ncc(-c3ccc([N+](=O)[O-])cc3)[nH]2)c(C)c1 | inconclusive [inhibitor, full curve] | – |
| CC(C)Sc1nc(N2CCCC2)c2c(c1C#N)CC(C)(C)OC2 | inconclusive [inhibitor, partial curve] | – |
| C#CCOCCOCCOCCNc1nc(N2CCN(C(=O)[C@H](Cc3cc4ccccc4[nH]3)n3cc(C(N)CC(C)C)nn3)CC2)nc(N2CCN(C(=O)[C@H](CCC(=O)O)n3cc(C(N)[C@H](C)CC)nn3)CC2)n1 (stereo partly drawn) | – | inactive: 52.8% |
| COc1cc(CNCc2cccs2)ccc1OCc1ccccc1 | inconclusive [inhibitor, full curve] | – |
| CCc1ccc(OCCCCN(C)Cc2ccccc2)cc1 | inconclusive [inhibitor, single point] | – |

| Structure (SMILES) | Potency | activity change, negative = inhibition |
| --- | --- | --- |
| CCOC(=O)C1(Cc2cccc(OC)c2)CCN(C/C=C/c2ccc(OC)cc2)CC1 | inconclusive [inhibitor, partial curve] | – |
| Cc1ccc(C(=O)C(C)OC(=O)c2ccccc2[N+](=O)[O-])cc1 (stereo not drawn) | inconclusive [inhibitor, partial curve] | – |
| COc1ccc(OCC(=O)Nc2ccc(N3CCN(C(=O)c4ccco4)CC3)cc2)cc1 | – | inactive: -5.96% |
| Nc1nonc1C(=O)OCC(=O)c1ccc(Cl)cc1 | – | inactive: -5.4% |
| Cc1ccc2c(c1)N(CC(=O)Nc1ccccc1F)C(=O)CO2 | – | inactive: -0.996% |
| CN(C)c1ccc(NC(=O)Nc2ccc3c(c2)c(=O)n(C)n3Cc2ccccc2)cc1 | inconclusive [inhibitor, single point] | – |
| COCCNC(=O)C(c1ccc(C)o1)N(Cc1ccc(OC)cc1)C(=O)Cn1nnc2ccccc21 (stereo not drawn) | inconclusive [inhibitor, partial curve] | – |
| O=[N+]([O-])c1ccc(N2CCCCCC2)c([N+](=O)[O-])c1 | inconclusive [inhibitor, partial curve] | – |
| Cc1ccc(NC(=O)CN(C)C(=O)CNC(=O)c2ccc3c(c2)OCO3)cc1 | – | inactive: 11.8% |
| O=C(c1cc(COc2cccc3cccnc23)on1)N1CCC[C@H]1CO | inconclusive [inhibitor, partial curve] | – |
| COc1ccc(-c2noc(N3CCC(C(=O)NCc4ccc(Cl)cc4)CC3)n2)cc1 | – | inactive: 16.7% |
| CC(=O)C1=C(C)NC(SCc2cccc([N+](=O)[O-])c2)=C(C#N)C1c1ccco1 (stereo not drawn) | inconclusive [inhibitor, partial curve] | – |
| O=C1C(=Cc2cccs2)Oc2ccccc21 | – | inactive: -12.4% |
| O=C(Cc1ccc(-n2cccc2)cc1)N1CCN(c2ccccc2F)CC1 | inconclusive [inhibitor, single point] | – |
| Cc1ccc(C)c(N=Cc2ccc(-c3ccc([N+](=O)[O-])cc3)o2)c1 | inconclusive [inhibitor, partial curve, poor fit] | – |
| COC(=O)c1ccccc1NC(=O)COC(=O)c1ccccc1N=Nc1ccc(N(C)C)cc1 | inconclusive [inhibitor, partial curve] | – |
| Cc1cc(N2CCCCCC2)nc2ccccc12 | inconclusive [inhibitor, partial curve] | – |
| O=C(Nc1ccc(C(=O)N2CCOCC2)cc1)c1ccccc1Cl | – | inactive: 4.2% |
| CCOC(=O)c1ccc(NC(=O)C2(c3ccc(OC)cc3)CCOCC2)cc1 | – | inactive: 1.12% |
| O=C1/C(=C/c2ccc(O)cc2)COc2ccccc21 | inconclusive [inhibitor, full curve, poor fit] | – |
| CSc1cccc(NC(=O)CN(C)S(=O)(=O)c2cnc[nH]2)c1 | active: 5.01 µM | – |
| O=C(N/N=C/c1ccc(-c2ccc(Cl)c(C(=O)O)c2)o1)c1cc2c(ccc3ccccc32)o1 | inconclusive [inhibitor, single point] | – |
